# Source: the supplement of paper PMC12217912
# This is one part of the list. The full chains were built here from the parent and the listed change. Values near 0.05 are background.
# B1: TEV protease; numbered along this chain (parent)
# chain: MGESLFKGPRDYNPISSSICHLTNESDGHTTSLYGIGFGPFIITNKHLFRRNNGTLVVQSLHGVFKVKDTTTLQQHLVDGRDMIIIRMPKDFPPFPQKLKFREPQREERICLVTTNFQTKSMSSMVSDTSCTFPSGDGIFWKHWIQTKDGQCGSPLVSTRDGFIVGIHSASNFTNTNNYFTSVPKNFMELLTNQEAQQWVSGWRLNADSVLWGGHKVFMVKPEEPFQPVKEATQL
# Variants of: B1
# Test: raw area under fraction-flipped curve 0-4 h after induction (AUC4h, not background-subtracted), DNA-recorder readout of cleavage of the substrate (dimensionless); higher = more cleavage of the substrate by the protease variant
# Details: temperature: 34 °C; time window: 0-4 h after rhamnose induction
# Experimental: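 In vivo DNA recorder in E. coli TOP10(DE3) ΔrhaA at 34 °C. Each TEVp single-site mutant (parent TEVp 0) is paired with a single-site variant of the 7-mer TEVs (canonical ENLYFQ|S). The substrate sits between flexible linkers in a Bxb1-sfGFP-TEVs-SsrA fusion, so cleavage stabilises Bxb1 and speeds flipping of a recombination array, read by NGS. The value is the raw area under the fraction-flipped curve over 0-4 h after rhamnose induction (AUC4h), with ≥20 reads per time point. It is not background-subtracted; inactive controls average about 0.047.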
# 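Also: Bxb1 expression induced with 0.2% (w/v) L-rhamnose at OD600 near 0.5, cultures sampled hourly, flipped fraction per protease–substrate barcode pair counted by paired-end Illumina sequencing.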
Variant,area with substrate ENLYFAS,area with substrate ENLYFCS,area with substrate ENLYFDS,area with substrate ENLYFES,area with substrate ENLYFHS,area with substrate ENLYFIS,area with substrate ENLYFKS,area with substrate ENLYFMS,area with substrate ENLYFNS,area with substrate ENLYFPS,area with substrate ENLYFSS,area with substrate ENLYFTS,area with substrate ENLYFWS,area with substrate ENLYFYS,area with substrate ENLYFFS,area with substrate ENLYFLS,area with substrate ENLYFVS,area with substrate ENLYFGS,area with substrate ENLYFRS
T30I,0.069,0.0554,0.064,0.0715,0.0631,0.0479,0.0618,0.0616,0.0633,0.0615,0.0658,0.0433,0.0449,0.062,–,–,–,–,–
E223V,0.0512,0.0514,0.0591,0.0588,–,0.0693,–,0.0597,0.066,0.0568,0.0233,–,0.0542,0.0535,0.0457,0.066,0.0642,–,–
L61P,0.0613,0.0599,0.0639,0.0462,–,0.061,–,0.0598,–,0.0453,–,0.0583,–,0.066,0.075,–,0.0624,0.0548,–
T70P,0.0564,0.0676,0.0439,0.0599,0.0575,0.0506,0.0661,0.105,–,0.0617,0.0796,–,–,–,0.0704,0.0681,–,–,0.0612
Q118I,0.0602,–,0.0542,0.0706,–,0.0627,0.0654,–,0.0634,0.0534,–,–,0.0619,–,0.0748,–,0.128,–,0.0545
V229S,0.0633,–,–,0.0608,0.0546,0.0499,0.0647,0.0644,–,0.0556,–,0.0661,–,–,0.0728,0.0652,0.0673,–,0.0686
N53Y,0.0517,0.0552,0.0576,0.0723,0.0726,0.0611,–,–,0.0599,0.0562,0.0598,0.0565,0.0659,0.0608,0.0656,–,0.0784,0.0584,0.0512
L73K,0.0612,0.0464,–,–,0.0543,0.0491,0.0426,–,–,0.0486,0.0655,0.0537,0.0626,0.0365,0.0611,–,–,–,0.0562
F38Q,0.0423,–,0.0515,0.0522,0.0554,0.0547,0.0583,0.0563,0.0548,0.0565,0.0506,0.0662,0.064,0.0499,0.0561,–,0.0586,0.0587,0.0555
I42K,0.0487,0.0416,–,0.0547,0.0617,0.0302,0.0444,0.0511,0.0427,0.053,0.0423,0.0476,–,0.0508,0.0704,–,–,0.0673,0.0489
T55D,0.0519,–,0.065,0.0697,0.0578,0.0503,0.0671,0.0606,0.0611,–,–,–,0.0565,–,0.0658,–,–,–,0.0424
P225E,0.0645,0.0718,–,0.0531,0.0497,0.0591,–,0.0624,–,0.0566,0.0642,–,0.0648,–,0.0741,0.0686,–,–,0.05
Q151D,0.0587,–,0.0556,0.0542,–,0.0525,–,0.0648,–,–,–,0.0549,–,–,0.0598,–,0.0088,0.0417,0.0625
